In PubChem BioAssay AID1745853 (National Center for Advancing Translational Sciences (NCATS), 2022):
The list shows a part of the results. The main result of the screen is listed elsewhere. These columns were measured beside it and carry no call.

Key:
Test in all cases: Primary Screen for Target Class Profiling of Small Molecule Inhibitors of Methyltransferases
[1] = molecular target: Glycine N-methyltransferase (Homo sapiens) (UniProt Q14749); settings: purified enzyme, MTase-Glo SAH luminescence; measured here: GNMT inhibition; at 40 µM; stronger effect = lower value
In short: (§1)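 Each enzyme was reacted with SAM and its substrate, with compounds tested once at 40 uM; SAH formed was read by MTase-Glo luminescence.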

[2] = molecular target: Guanidinoacetate N-methyltransferase (Homo sapiens) (UniProt Q14353); settings: purified enzyme, MTase-Glo SAH luminescence; measured here: GAMT inhibition; at 40 µM; stronger effect = lower value
In short: as §1

[3] = molecular target: Histamine N-methyltransferase (Homo sapiens) (UniProt P50135); settings: purified enzyme, MTase-Glo SAH luminescence; measured here: HNMT inhibition; at 40 µM; stronger effect = lower value
In short: as §1

[4] = molecular target: Nicotinamide N-methyltransferase (Homo sapiens) (UniProt P40261); settings: purified enzyme, MTase-Glo SAH luminescence; measured here: NNMT inhibition; at 40 µM; stronger effect = lower value
In short: as §1

[5] = molecular target: Phenylethanolamine N-methyltransferase (Homo sapiens) (UniProt P11086); settings: purified enzyme, MTase-Glo SAH luminescence; measured here: PNMT inhibition; at 40 µM; stronger effect = lower value
In short: as §1
On the % scale 0 is the no-effect control and ±100 the full control effect.

| SMILES | activity change, negative = inhibition [1] | activity change, negative = inhibition [2] | activity change, negative = inhibition [3] | activity change, negative = inhibition [4] | activity change, negative = inhibition [5] |
| --- | --- | --- | --- | --- | --- |
| CCOc1ccc(CNC(=O)c2cc3n(n2)CC(C)(C(=O)NC2CCCCC2)N(C)C3=O)cc1 (stereo not drawn) | 3.44% | 3.7% | -0.744% | 3.6% | -1.12% |
| O=S(=O)(NCCc1nc2ccccc2[nH]1)c1ccccc1 | -7.92% | 3.05% | 0.896% | 7.35% | -3.59% |
| CN1C(=O)c2cccn2CC1C(=O)NC1CCCC1 (stereo not drawn) | -6.21% | -9.82% | -2.28% | -6.93% | -3.78% |
| CC(C)Cn1c(CNC(=O)OC(C)(C)C)nc2cccnc21 | -4.47% | -1.89% | -2.1% | -6.83% | -6.57% |
| COc1cccc(CSc2nnc3n(C)c(=O)c4ccc(C(=O)NC5CCCC5)cc4n23)c1 | 0.855% | 0.989% | 1.84% | 4.17% | 4.38% |
| Cc1ccc(CNC(=O)CCn2ccc3cc(S(=O)(=O)N4CCCCC4)ccc32)cc1 | 4.5% | 4.53% | 7.28% | 4.48% | 1.58% |
| C[C@@H](CC[C@@H]1[C@@]2(C)CCCC(C)(C)C2CC[C@@]1(C)O)CC(=O)O (stereo partly drawn) | 1.49% | 4.66% | 12.2% | -9.23% | -0.351% |
| CCOCCCN1C(=O)c2cc3sccc3n2CC1(C)C(=O)NC1CCCCCCC1 (stereo not drawn) | 4.26% | -12.5% | 7.47% | 1.5% | 3.54% |
| CC(C)Oc1ccc(C(=O)N[C@H](CNC(=O)CN(C)C)Cc2ccc(-c3cn4cccc([C@H](C)O)c4n3)cc2)cc1Cl |  | 13.2% |  | -6.91% | 2.26% |
| Cc1ccccc1S(=O)(=O)NCCn1c(CCc2ccccc2)nc2ccccc21 | -6.58% | 3.86% | -6.39% | -11.5% | -0.559% |
| Cc1cc(C)c(NC(=O)Cn2c(=O)oc3cc(S(=O)(=O)N4CCCC4)ccc32)c(C)c1 | -2.03% | 2.86% | 1.75% | 7.48% | -1.31% |
| CC1(C(=O)NC2CCCCCC2)Cn2nc(-c3ccco3)cc2C(=O)N1Cc1cccs1 (stereo not drawn) | -2.01% | 0% | 2.86% | -11.8% | 0.226% |
| CC1CCC2(C(=O)OC3OC(CO)C(O)C(O)C3O)CCC3(C)C(=CCC4C5(C)CC(O)C(O)C(C)(C(=O)O)C5CCC43C)C2C1(C)O (stereo not drawn) | 0% | 0.919% | 2.23% | -12.6% | 4.04% |
| O=C(c1cc2c(cc1F)OC(c1ccc(F)cc1)(c1ccc(Cl)cc1Cl)O2)N1CCOCC1 (stereo not drawn) | -2.58% | -16.9% | 7.65% | -35.4% | -4.29% |
| Clc1nccc2c1ccc1ccccc12 | -42.9% | 9.98% | 1.81% | -8.57% | -0.185% |
| COC1CCC12CCN(C(=O)c1cnc(C)cn1)CC2 (stereo not drawn) | -1.07% | -3.78% | -2.35% | -1.24% | 0.485% |
| COc1ccc(C)cc1NS(=O)(=O)c1ccc2c(c1)[C@H]1C=CC[C@H]1[C@@H](c1cccc(Cl)c1)N2 | -11.8% | -5.77% | -19% | -25.7% | -16.6% |
| Cc1ccc(-c2n[nH]n3c2nc(=O)c2ccc(C(=O)NCc4cccnc4)cc23)cc1 | -9.49% | -0.75% | -6.13% | -2.78% | -6.84% |
| COc1ccc(CN2CC(Oc3ccccc3C(=O)NCc3ccccc3)C2)c(OC)c1 | -13.3% | -8.67% | -23.4% | -37.3% | -12.7% |
| CCCCNC(=O)c1cccc(-c2cc(N3CCN(C)CC3)nc(N)n2)c1 | -3.62% | -3.25% | -63.3% | -7.61% | -3.02% |
